From article PMC10726135
The other results are listed elsewhere or left out. At the low end of the ranking the order means little. The protein was read in a cell extract, so binding may be indirect.

Biological target: T1, HNF4alpha2 (COS-7 nuclear extract) (UniProt P41235)
T1 sequence: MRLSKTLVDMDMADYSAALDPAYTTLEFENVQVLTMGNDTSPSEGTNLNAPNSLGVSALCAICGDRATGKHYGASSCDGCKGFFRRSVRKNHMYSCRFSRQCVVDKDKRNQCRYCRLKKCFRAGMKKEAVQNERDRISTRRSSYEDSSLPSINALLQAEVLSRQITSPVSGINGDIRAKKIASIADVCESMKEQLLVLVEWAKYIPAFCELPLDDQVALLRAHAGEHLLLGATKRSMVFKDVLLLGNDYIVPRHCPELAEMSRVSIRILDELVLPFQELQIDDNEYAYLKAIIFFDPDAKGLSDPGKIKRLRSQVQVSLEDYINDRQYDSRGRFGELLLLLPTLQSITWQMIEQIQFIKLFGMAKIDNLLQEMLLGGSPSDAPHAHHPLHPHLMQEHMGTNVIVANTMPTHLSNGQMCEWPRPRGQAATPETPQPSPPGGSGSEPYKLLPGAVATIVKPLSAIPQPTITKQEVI
Assay: protein-binding microarray
Conditions: COS-7 nuclear extract on double-stranded Agilent 4x180k PBM; binding buffer, salt, pH and temperature not given; high values mean tight binding; double strand, one strand shown; sequences stand for … in …GCCTAGGGAGATTAGAGTATCGGTCGA

Sequence | binding signal (log2 normalized intensity)
AATTTCAAATTTGCACCTGCCTTTAGGCAT | -1.21
AGCTTAGGGTTCAAACTCCAGCTCTGATAC | 2.77
TGTGATCTTGGGTAAGCCACTGAACTTTCA | 2.38
AAGGGTTCATCTGACTGGAAGAGCCTGCAA | -1.06
GTGGGTAATTAACTCCCCCTGCCCCCAGGT | 4.93
CCATCAGTGGACTTTGACCTTGTTTTCAAT | 9.03
ATGAGATAAGGTTCTGATAAAGTATCTTCA | -0.711
ACACGAAACAAGTAGCAGTTCAAAAGTTCA | 1.1
GCACTTGATGTTCCCCCTCCCTGGACTCCT | 4.45
GGCAGGTCTCTCTCATTCACACCCTCAGCT | -0.685
GAGGGAGCCGCTGTGTGGGAAGAGGGCCTA | -1.24
TTCGAATATTTGTGATTTGAAATTTGTCCT | 2.51
AGTGGAGAAATAACATTAATGGAAATGCCT | -0.84
TAAAACATCTTTGAAGAGCACAGGGTCAGC | 1.51
CAAGCTTGATCCAGGATCCTTCTTGACCAG | 0.316
GGAGGCAGGGAGACAACCTGGGTGTAGGTG | -0.981
CGGGGAACCCAGCAAACCTGTCTCTCTGCA | -1.06
ACCCGGCGCGGACATAAAATTAAAGCGGAC | -1.12
CCATCATGTGTACAGAGCTGAAGTTTGCAA | 0.852
TAGCAAAGAAACTCGTGGCATTTTTGCCCC | 2.39
TCTGTCCTTTGTGTTTATGGCAAATTGATA | 1.81
GAACTGAGTTACTTGTGCTAAGTGCCATGT | 1.4
GTGATAAAACCCATGGACCTGACACCCGCT | -1.06
CCAAAGTCCGCCACTAGCAACAGCTGCAGT | -1.21
AGTGCAATGCCTAAACCAGGATCCAGTCCT | -1.19

Sequence | binding signal (log2 normalized intensity)
TCTTGGGTAAGCCACTGAACTTTCACTGCC | 1.22
ACCTGAGTGCCAGAGCTGTGAAGACTGCAG | -1.06
CCACACTCTCCCCACCCCCAAATCCCCTTC | 5.78
AAGCAGCGATGGAAGGGATGGGGTGCAAAC | -1.18
TCCCCGTCACCCTCCCCGCCACCCCCCAGA | 7.45
CAAGATAACAAGGCAAACTTTATCAAGACT | -1.17
GGCCTCTCTGCAAATTTGCCTTGTCCTTAG | 0.913
CTGTTTCCTACTGACCTCCGACCCCACGGA | 4.92
GTCCAGGGCCCTTACCATCAATCACATTGT | -1.07
GCAAAGGTCACAAGAGGTGCTGTGTGCCTG | 0.923
TCACACAATCAGTGTGTTGACATTTGAACC | 3.77
CTCCTATCCTCTGATCCCCAGGTCATAAGA | 2.06
CTGACCCTAGATGAGATAAGGTTCTGATAA | -0.279
TCTCCAAGGTTATTATATTGTGGGTTCTTG | 2.25
AGGTTCAGTGAAGTAGTGTGTATGAAAGGC | 0.788
CCTTGCTGATAAAACAGCATGCGGTAAAGA | -0.0345
TTGATAAACAGATAACTGGGGGCAAAGGTT | 6.16
TGATCCCTGACTCATAGCTCCAGAGCCACC | -1.23
ACTACTTATCTCCAAGACCCTTCATAGCTT | -0.887
CAGCTAAAGCCTGCTCGTTGGGGGTCACCC | 2.97
CTCGCCTGGCTCCCCACGTGGCAATCATTC | -1
AACTTTCAAGATGAAGCAAGAGTCCAAATT | 2.14
CAACCCATCCAACTCCTTGAGAAGTACAAC | -0.342
ATTTGACAATTTACAGTGTTCAAAGGTAGC | 1.66
TTTCATTGAACTGCTGGGGGTAAAGTGGAT | 1.65

Sequence | binding signal (log2 normalized intensity)
CTGACCTCCGACCCCACGGACTTAAATTGT | 2.76
CTTTGAAAAAACCTGTTCAGCCAGATTCTC | -1.03
ACCTGTACAGGGACTGTGTCAACAAGGTAT | 0.801
CTGAGGAAAAAAGTTTGAAAATGCCTTGAA | 0.0239
AGCATTTTTGTATGCATAAGGCCTTGGACC | 3.11
AATGAAACATTGTGACTTCCTCATGATCGC | 0.419
CATAGTAACAACCTAAATCAGAGCACCATT | -1.14
ACGGACTTAAATTGTGCTGTGTCAGAGTTG | 1.53
CTGCACCTTGACCTCCTGGGCCCAAGTGCT | 2.42
CCAAGAGCGGAAAGAAAGGCCTTTCATACG | -1.09
GCGGCGGAACGCGCGGGCAGGTTGCCCTTT | 4.4
TGGAGGCCAAAAGTAGGGAGGAGGGGAGGG | -1.04
GCTCCGCCGGACCGGCCAAACTGGTTTCTC | -1.07
ACCAAACAAAATTAATGTGCCTGCCACATC | -1.19
CCAGATGAGATAGGAGGTCAGCACAAGATA | -1.24
GAGAGTTTTCCTTGGCTGTGCTGCCCTTTG | 3.6
ACCAGATAAGGCAGTGGTTTGCAGTTGGAA | 1.21
GTAACCTTTGGCCAATTGCATTTTTGTTCC | 2.66
TCGTGGCCCCTGGGTCGTTGGTGCTCCCCC | 4.21
TGGGCTCTGACCCGAAGGGTAGGAGAAGCT | -1.16
GGAATGACCTTTGATATTTGTGCCTAGTGG | 4.8
ATCGGAGAACGTTCCAAACCTACACAGACC | -1.22
AGGCATCTCTGGGGGTCAGAAGTCCAACAT | 5.1
TGATCTTAAGATGATATAGCTGTTCATTAG | 1.12
AGAAATAGCCTGAAAATGTTTGCCGACCTC | 1.5

Sequence | binding signal (log2 normalized intensity)
TTGACCACAGTTATCTCCCCAGCTTACAAT | 2.06
CTTTGTATAAGCCGTGCAAAGTTCATCCCT | 3.24
ATTTCACAAATGAGGGGACAAAGTTCGTGG | 3.66
AAGGCCCAGCTAGAAGCAGTGGGACAAAGG | 0.86
ATCGCACGAGCAAGTTTATTCCAAGACTCG | -1.02
CTGGCAAATGTGAATGGACTCTGCCCTTAG | 6.01
TGTAATACACAAGCAATAGGGTTCGGTGCA | -0.927
GTACGGAGGACAGCCACCCGTGCTTGGAAT | -0.853
CTCCCTCCCCACCCGGTGTGCGTGGGTGGG | 2.04
GCTCAGCTGGTTGCCCCTTTGACCCTCGGG | 6.11
CATTCAGCAACTGGGTTCAGTTACGGGGTG | 0.99
TACTTTTCAAATGTAAGAATTTAAACCAAA | 0.0182
TTCAAAAGAGAGAGTAGCTCCAAAAGGTGG | -1.11
TATGGCAACCTTTGTCCTGCTGAGGAGGCA | 2.36
TCCCCACCATTAACCCTACAGTCCTGCCAC | 2.12
ATCCTGTCTCCTTTAACCTTCATTCATATC | 1.79
TTAGCTTCCTCCCTTGGAATGTGACCTTAG | 4.12
TGGACTTTGTGGGCCAAAAGCAGCCATTAA | 0.36
TTTCAAGCAATGTTTGCCTCTCAGCTCATT | -1.17
AATGATCAAAGAGACACAATCCCTAAGGCC | -1.09
AAGAGCAAAGGACCAAAAGATATTTGCTGC | -1.27
ACTTCTGTCTCCAGAAATCAACCTTTGATC | 7.84
TCTACTTGTTAGTAATCGATGTCCATGAAG | 1.95
AGCAAAGGTCATCCTGGGCTACCGATATGA | 0.737
ATCTTTGACCTCTCCAGGGTCCTTGCCTTA | 1.9

Sequence | binding signal (log2 normalized intensity)
TCTTGGCTGCTTTAGACATGAGATAGCATT | 0.558
TCAGAGGCTAAACCTAGCCCCCTTTCCCTT | 3.42
GGCCACTCCGTTTGCTATGGCCTTTCTTCA | -0.817
AGGCCATCCACATTCTTTGGCTCAGGGCCT | -1.15
CCTGGCCGAGGTTGCCCAGCTATTAAATGG | -0.945
TTCACCGGAGATTTACATTCCAGAGTAAAC | -1.08
TATCTTCGTATAGAAACAAGACAGAATGAT | -0.775
ACTGAATATGTTCGGGAGACATGTGGCCTT | 1.94
GCAGGGCTTTTCCATTGACAGTCCAAGGAC | -1.16
GATAAGTCCCTAAGAGGAATAGTCAGATTG | -1.24
TTGCCTGATAGCATCGTGGGTATTTGGGGA | 0.618
TTACTGGACTTGATCCATTCTACCCCTGTG | 2.73
TAGCTCACAGGAAAGGAGACTAAAGGTCAA | 4.08
CAGCCCAGCATACCATTCCCACCCCATTTC | 3.52
ACACAGTTGCCTATGCCCTTTGAAATTCTG | 1.68
AAAAGCCTTTTGAAGAAACCAACCCTGCCA | -1.14
TTCCTGTTAGATAGAGGAGTCAAGCAAACA | -0.768
AACCCCTAGGTCAGCAGTTGTTCAAAGTCC | 4.6
ACTGTATCTTATCAGAAACACACCCTTGGG | -1.1
AGTGCATAGCTAAGCACCCAGATAAGTTAT | -1.09
TTGGATTTTAAAAGCCCTCAAATACTCTGA | -1.14
CGGTGAGGGATTGTTTAGGTACAAAGTCCA | 8.35
TCTGCTCTTGAACCAGAGAATCTCTCATTT | -1.2
TCAAGACAGGTGAGAGAGCTGCATTGCTTC | -1.05
TTACTTATGTTGTCCGGACACCAACCTTTG | 2.54

Sequence | binding signal (log2 normalized intensity)
TCTATCTCCCTACCCTCACCCCTGCTGGGG | 1.92
GTCACGTGGGTCCAGGGTCACGTGCCGCTG | 0.405
CTGAACCTTGTCCCACTCTTGGGTCAACAT | 2.03
CTACAGCCTGATGTTGACAGAGCTCCCATC | -1.11
AAAGTCAACACTTAGGGTGGATACTTTGAC | 0.0169
CACAGTGTTATTTGCTGAGGTGGGGGAGGT | 0.53
AGTACCTCTCAAAAATCTCACTCACCCTAA | -0.279
AGATAGCTGTTAAATGGAGTGGAATTTGGA | 2.77
GGTATGTTAGATTAGTGTGCAGCTTTGTGT | 2.1
AGGAATATTAGTTTAACTCCTAGGTAATTT | -0.854
TTAAGCAGATGTTTCTGCAAGCACACTGTC | -1.16
TCTACACTGCTTACCCTGCAGTGTGACCTT | 4.19
CTGGTCGACCTCCCCGTCACCCTCCCCGCC | 6
TTGACCACCTACTGTTTGTGCAGAGGAGAT | -0.991
CAAGAGGCTTCTTATCAGCAGCTGGGGTGA | 0.844
GATAAGGATGGATCAAAGGAAACTGCTTGG | -0.885
GGCTCAGGTAAAGGCATGCTTGGCATCCCT | -0.899
GGCCAAATCAGAACTGAGTTACTTGTGCTA | -1.04
AAACCATCCCAGGCATCCAGGCCAGTGGGG | -1.07
CTCCCCCTCCTGCCCTATGTCCTCCAGCTC | 3.62
